# According to PubChem BioAssay AID686978 (National Center for Advancing Translational Sciences (NCATS), 2013):
# Several values for one entry are separate records, joined by “and”; a condition that tells them apart may be missing. Identical values can stand only once. Hit rate of the full screen: of about 420,000 compounds, about 64,000 (15%) were called active. The inconclusive results got no clear call from the source; some entries with a clear call stand among them for comparison. Calls come from the whole dose curve; as a rule, active = well fitted inhibition curve with a large enough effect; inconclusive = small, poorly fitted or top-dose-only effect; inactive = flat fitted curve, though single readings scatter. Potencies of inconclusive entries are doubtful fits and often do not repeat.
# Test: qHTS for Inhibitors of human tyrosyl-DNA phosphodiesterase 1 (TDP1): qHTS in cells in absence of CPT; note: nearly all actives have a fitted effect of over 55% in size
# Conditions: DT40 Tdp1-/- hTDP1 cells, no CPT, ATP luminescence, 48 h; activity change, negative = growth inhibition: at 46.2 µM (top of the series) unless noted
# Procedure, shortened: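 Chicken DT40 Tdp1-/- cells complemented with human TDP1, screened without camptothecin (DMSO vehicle only), 400 cells/well. Compounds pin-transferred, cells incubated at 37 °C for at least 48 hr. Growth read as ATP-dependent luminescence (CellTiter-Glo, 30 min at RT).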
# % is set by controls: 0 for no effect and ±100 for the full control effect; potency is the fitted concentration of half-maximal effect; tags give direction and shape of the fitted curve.
Structure (SMILES),"activity change, negative = growth inhibition",Potency
O=C(NCCN1CCOCC1)C1CCCN(S(=O)(=O)c2ccc(F)cc2)C1 (stereo unspecified),inactive: 4.54%,–
COc1ccccc1CNC(=O)c1cnc(N2CCCC2)nc1C,–,"inconclusive: 8.2 µM [inhibitor, partial curve]"
CCn1c(=O)c([N+](=O)[O-])c(N2CCOCC2)c2ccccc21,–,"inconclusive: 29.1 µM [inhibitor, single point]"
CCCOC(=O)c1ccc(Cn2nnc3sc4c(c3c2=O)CCC(C)C4)cc1 (stereo unspecified),–,"inconclusive: 29.1 µM [inhibitor, single point]"
CCOc1ccc(NC(=O)c2cc(S(=O)(=O)N3CCOCC3)ccc2F)cc1,–,"inconclusive: 18.4 µM [inhibitor, single point]"
COCCCNc1nc2c(c(=O)n(Cc3cccc(Br)c3)c(=O)n2C)n1C,–,"inconclusive: 29.1 µM [inhibitor, single point]"
CC1Cc2ccccc2N1Cc1cc(=O)c(OCC(=O)Nc2ccccc2)co1 (stereo unspecified),–,"inconclusive: 20.6 µM [inhibitor, single point]"
O=c1c(OCc2ccccc2)cccn1Cc1ccccc1,–,"inconclusive: 29.1 µM [inhibitor, single point]"
CCCN1Cc2cccc(C(=O)Nc3ccc(S(=O)(=O)N4CCCCCC4)cc3)c2C1=O,–,"inconclusive: 16.4 µM [inhibitor, partial curve]"
O=C(NC(=S)Nc1ccccc1N1CCOCC1)c1ccccc1F,–,"inconclusive: 16.4 µM [inhibitor, single point]"
CC(C)C(c1nnnn1Cc1ccccc1)N(CCCO)Cc1cc2cc3c(cc2[nH]c1=O)OCO3 (stereo unspecified),–,active: 16.4 µM
COc1ccccc1NC(=O)C1=C(C)Nc2nc(SCc3ccccc3)nn2C1c1cccnc1 (stereo unspecified),–,"inconclusive: 20.6 µM [inhibitor, partial curve, poor fit]"
Cc1ccc(/C(N)=N/OC(=O)N2c3ccccc3Sc3ccccc32)cc1,–,active: 20.6 µM
Cc1ccc(-c2csc(NC(=O)CSc3nc4ccccc4c(=O)n3CCCN(C)C)n2)cc1,–,active: 14.6 µM
CCN(CC)C(=O)c1csc(Nc2cccc3ccccc23)n1,–,"inconclusive: 23.1 µM [inhibitor, single point]"
OC1(c2cccc(C(F)(F)F)c2)CCN(c2ncnc3c2[nH]c2ccccc23)CC1,–,active: 20.6 µM
COc1cc(C(=O)NCc2ccc(S(N)(=O)=O)cc2)ccc1OCC(=O)Nc1cccc(C(F)(F)F)c1,–,"inconclusive: 18.4 µM [inhibitor, single point]"
COc1ccc2nc(/C(C#N)=C\c3ccc(Oc4ccc([N+](=O)[O-])cn4)cc3)[nH]c2c1,–,"inconclusive: 25.9 µM [inhibitor, partial curve]"
CCn1ncc(Cl)c1C(=O)Nc1cc(Cl)ccc1Cl,inactive: -11.5%,–
Cc1ccc(-c2cn(-c3ccccc3F)c(=S)[nH]2)cc1,–,"inconclusive: 16.4 µM [inhibitor, partial curve]"
CS(=O)(=O)Nc1ccc(C(=O)NCCSCc2c(F)cccc2Cl)cc1,–,"inconclusive: 29.1 µM [inhibitor, single point]"
Cc1nc2sccn2c1CN1CCOc2ccc(CN3C[C@@H](C)O[C@@H](C)C3)cc2C1,–,active: 8.2 µM

Structure (SMILES),"activity change, negative = growth inhibition",Potency
CCOc1ccc(NC(=O)c2cc3c(=O)n(Cc4cccs4)ccc3nc2C)cc1,–,"inconclusive: 23.1 µM [inhibitor, single point]"
CCn1ncc(/C=C/C(=O)c2ccccc2)c1C,–,"inconclusive: 29.1 µM [inhibitor, single point]"
C#CCOCCOCCOCCNc1nc(N2CCOCC2)nc(N2CCN(C(=O)[C@H](CO)n3cc([C@@H](N)C(C)C)nn3)CC2)n1,inactive: -13.5%,–
CN(C)C(=O)Nc1ccc(Cl)c(Cl)c1,–,"inconclusive: 4.11 µM [inhibitor, full curve, poor fit]"
O=C(Nc1cccc(Br)c1)c1ccc(Cl)c(S(=O)(=O)N2CCOCC2)c1,–,active: 18.4 µM
C[C@H](CO)N1C[C@H](C)[C@H](CN(C)C(=O)c2ccccc2)OCc2ccccc2-c2c(n(C)c3ccccc23)C1=O,–,"inconclusive: 29.1 µM [inhibitor, single point]"
CCCCCCn1c(CN2CCCCC2CC)nc2c1c(=O)n(C)c(=O)n2C (stereo unspecified),–,active: 13 µM
CC(=O)Nc1ccc(NS(=O)(=O)c2ccc(-c3csc(C)n3)s2)cc1,–,"inconclusive: 13 µM [inhibitor, single point]"
COc1cccc(C(=O)C[n+]2cccc3cc(OC)ccc32)c1,inactive: -25.4%,–
Cc1ccc(S(=O)(=O)N2[C@@H](Cc3ccccc3)CO[C@H]2CC(=O)c2cccc3ccccc23)cc1,–,"inconclusive: 25.9 µM [inhibitor, single point]"
CCC(C)c1ccc(NC(=O)c2c([N+](=O)[O-])cnn2CC)cc1 (stereo unspecified),–,"inconclusive: 23.1 µM [inhibitor, single point]"
COc1ccc(C)cc1NC(=O)COC(=O)c1ccccc1SCC(=O)N1CCCC1,–,"inconclusive: 29.1 µM [inhibitor, single point]"
COC(=O)C1=C(C)N(Cc2ccccc2)C(=NCc2cc(OC)c(OC)c(OC)c2)N[C@H]1c1cccc(F)c1,–,active: 8.2 µM
CN(Cc1cccc(C(F)(F)F)c1)Cc1nc(-c2cnccn2)no1,inactive: -18.2%,–
COCCN(C(=O)CSc1nnc(-c2ccncc2)n1C)c1c(N)n(CC(C)C)c(=O)[nH]c1=O,inactive: 2.54%,–
Cc1ccc(-c2nnc3sc(CCc4ccccc4)nn23)cc1,–,"inconclusive: 13 µM [inhibitor, partial curve]"
COc1ccccc1N(CC(=O)NCCSCc1cccc(Cl)c1)S(C)(=O)=O,–,"inconclusive: 14.6 µM [inhibitor, partial curve] and inconclusive: 29.1 µM [inhibitor, single point]"
O=C(C1CCC(Cn2c(=O)c3sccc3n(Cc3ccccc3F)c2=O)CC1)N1CCCCC1 (stereo unspecified),–,"inconclusive: 29.1 µM [inhibitor, single point]"
NC(c1csc(Nc2nncc3ccccc23)n1)c1ccccc1Cl (stereo unspecified),–,active: 14.6 µM
O=c1[nH]c(SCc2cccc(F)c2)nc2ccccc12,–,"inconclusive: 18.4 µM [inhibitor, single point]"
COc1ccc2nc(C)cc(SCC(=O)N/N=C/c3ccccc3)c2c1,inconclusive: -35.1% [inhibitor],–
CC(C)CNC(=O)CSc1ccc(S(=O)(=O)N(C)C2CCCCC2)cn1,–,"inconclusive: 29.1 µM [inhibitor, single point]"

Structure (SMILES),"activity change, negative = growth inhibition",Potency
CCOC(=O)C1=CCN(S(=O)(=O)c2ccccc2C)C1c1ccc(Cl)c(Cl)c1 (stereo unspecified),–,"inconclusive: 23.1 µM [inhibitor, single point]"
COc1cccc(CN(C)S(=O)(=O)c2ccc3c(c2)OCCO3)c1,–,"inconclusive: 16.4 µM [inhibitor, single point]"
CC(OC(=O)c1ccccc1NS(=O)(=O)c1cccc(C(F)(F)F)c1)C(=O)N(C)Cc1ccccc1 (stereo unspecified),–,active: 23.1 µM
O=C(Cn1nc(C(=O)O)c2ccccc2c1=O)NCc1ccco1,–,"inconclusive: 23.1 µM [inhibitor, single point]"
S=C(NCc1ccccc1)Nc1ccncc1,–,"inconclusive: 11.6 µM [inhibitor, partial curve]"
Cc1ccccc1CCNC(=O)c1ccc(Cl)c(S(=O)(=O)N2CC(C)OC(C)C2)c1 (stereo unspecified),–,"inconclusive: 23.1 µM [inhibitor, single point]"
CCc1c(C)c(C#N)c2nc3ccccc3n2c1NCC1CCCO1 (stereo unspecified),–,"inconclusive: 16.4 µM [inhibitor, partial curve]"
O=C(Oc1ccccc1)c1cccc2cccc(C(=O)Oc3ccccc3)c12,–,active: 20.6 µM
COc1ccc(/C=C/C(=O)c2ccc3ccccc3c2O)cc1CN1CCOCC1,–,active: 18.4 µM
C=CCNCCCOc1ccc(Cl)cc1Br,–,"inconclusive: 29.1 µM [inhibitor, single point]"
Cc1nc2cc(NC(=O)COc3ccc(C#N)cc3)ccc2n1-c1ccccc1,–,"inconclusive: 29.1 µM [inhibitor, single point]"
CC(C)c1ccc(S(=O)(=O)N2CCN(C(=O)c3cccc(S(=O)(=O)N4CCOCC4)c3)CC2)cc1,–,"inconclusive: 14.6 µM [inhibitor, partial curve]"
C=CCn1c(SCC(=O)NC23CC4CC(CC(C4)C2)C3)nc2cc(C(=O)O)ccc2c1=O,inactive: -0.741%,–
CCOC(=O)c1sc(NC(=O)Nc2ccccc2)cc1C,–,active: 25.9 µM
COc1cccc(Cn2cccc(NC(=O)Nc3ccccc3C)c2=O)c1,–,"inconclusive: 29.1 µM [inhibitor, single point]"
CC(C)N(C(=O)[C@H]1C[C@H](CC(=O)NCC23CC4CC(CC(C4)C2)C3)C(=O)N2CCc3c([nH]c4cc(CCC(=O)N(C)C)ccc34)[C@]12C)C(C)C,–,active: 7.31 µM
O=C1Nc2ccc([N+](=O)[O-])cc2OC1CCN1CCOCC1 (stereo unspecified),inactive: -16.5%,–
O=C(NNC(=S)Nc1ccc(Cl)c(Cl)c1)c1cccc([N+](=O)[O-])c1,inconclusive: -32.3% [inhibitor],–
COc1ccc(/C=N/N2CCN(c3ccccc3OC)CC2)cc1OC,inactive: -17.9%,–
CCOc1ccc(-c2nc(CSCC(=O)NCc3ccco3)c(C)o2)cc1,–,"inconclusive: 18.4 µM [inhibitor, partial curve, poor fit]"
COc1ccccc1N1CCN(S(=O)(=O)c2ccc3nc(-c4ccccc4)[nH]c3c2)CC1,–,active: 20.6 µM
CC(C)NC(=O)C1CCN(C(=O)c2cc3sccc3n2Cc2ccc(Cl)cc2)CC1,–,active: 1.46 µM
